# According to article PMC4336329 (PLoS ONE, 2015):
# Among all 310,000 compounds or so, about 14,000 (4.5%) showed an effect of 50% or more. Effects have a minus sign here. The list shows a part of the results.
# Molecular target: human ether-à-go-go-related gene (hERG) potassium channel (human, UniProt Q12809)
# Assay: primary screen, population patch clamp on CHO cells stably expressing hERG
# 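Note: peak tail current of the secondary pulse compared with the same well before compound.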
# Sequence of human ether-à-go-go-related gene (hERG) potassium channel (Q12809 whole entry, looked up): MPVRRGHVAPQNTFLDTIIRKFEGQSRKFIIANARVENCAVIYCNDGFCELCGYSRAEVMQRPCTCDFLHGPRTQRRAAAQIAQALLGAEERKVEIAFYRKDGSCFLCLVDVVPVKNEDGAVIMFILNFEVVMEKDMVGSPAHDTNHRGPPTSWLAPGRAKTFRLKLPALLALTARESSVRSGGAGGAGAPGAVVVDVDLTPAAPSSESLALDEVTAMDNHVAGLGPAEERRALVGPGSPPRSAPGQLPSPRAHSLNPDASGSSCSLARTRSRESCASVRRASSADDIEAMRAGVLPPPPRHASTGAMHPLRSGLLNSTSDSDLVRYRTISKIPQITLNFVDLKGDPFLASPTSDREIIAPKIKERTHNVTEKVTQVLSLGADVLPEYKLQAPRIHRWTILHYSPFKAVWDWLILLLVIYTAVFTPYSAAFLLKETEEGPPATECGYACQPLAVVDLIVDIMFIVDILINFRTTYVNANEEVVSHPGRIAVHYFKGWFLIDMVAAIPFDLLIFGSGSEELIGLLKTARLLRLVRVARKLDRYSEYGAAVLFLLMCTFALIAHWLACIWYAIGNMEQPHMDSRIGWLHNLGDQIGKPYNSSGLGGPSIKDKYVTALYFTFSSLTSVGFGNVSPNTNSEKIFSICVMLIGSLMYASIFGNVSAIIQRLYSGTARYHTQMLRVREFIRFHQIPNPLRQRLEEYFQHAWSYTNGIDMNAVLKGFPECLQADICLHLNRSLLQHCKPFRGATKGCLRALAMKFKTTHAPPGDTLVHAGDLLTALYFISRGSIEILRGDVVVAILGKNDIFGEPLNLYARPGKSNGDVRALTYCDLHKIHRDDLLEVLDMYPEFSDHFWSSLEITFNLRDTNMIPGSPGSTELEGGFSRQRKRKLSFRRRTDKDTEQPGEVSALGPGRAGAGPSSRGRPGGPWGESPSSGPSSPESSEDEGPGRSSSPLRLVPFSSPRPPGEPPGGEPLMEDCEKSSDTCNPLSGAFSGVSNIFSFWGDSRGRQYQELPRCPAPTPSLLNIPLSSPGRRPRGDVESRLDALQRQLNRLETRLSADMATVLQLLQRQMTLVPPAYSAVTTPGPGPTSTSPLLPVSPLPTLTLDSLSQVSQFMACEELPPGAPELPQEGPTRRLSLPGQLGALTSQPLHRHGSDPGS
row,SMILES,"hERG current change (%, negative = inhibition) at 10uM [%]"
1,COc1ccc(OC)c(NC(=O)CSc2nc3scc(C)c3c(=O)[nH]2)c1,17.9
2,Cn1ccnc1SC(C(=O)O)c1ccccc1 (centres unmarked),8.77
3,COc1ccccc1N/C=C(\C#N)c1nc2ccccc2[nH]1,15.8
4,O=C1N=C(N2CCOCC2)S/C1=C\c1cccnc1,-0.945
5,CCOC(=O)N1CCC(N(CCN(C)C)C(=S)Nc2cccc(Cl)c2C)CC1,12.5
6,CC(=O)OC(C)CS(=O)(=O)c1ccccc1 (centres unmarked),15.1
7,CC1CCCC(NC(=O)COC(=O)c2ccc3ccccc3n2)C1C (centres unmarked),-5.68
8,O=C1NC2(CCC3(CC2)OCCO3)NN1c1ccc(Cl)cc1,-0.699
9,Cc1cccc(NC(=O)CN2CCCN(S(=O)(=O)c3ccc(Br)s3)CC2)c1,-19.8
10,Cc1ccc(NC(=O)COC(=O)CCc2nc3ccccc3n2-c2ccccc2)c(C)c1,18.4
11,COc1ccc(C2NS(=O)(=O)OCC2C)cc1 (centres unmarked),16.4
12,Cc1ccc(-c2ccc(=O)n(CC(=O)NCCCN3CCCCC3C)n2)cc1 (centres unmarked),-10.3
13,CN(C)CCCC1(O)c2ccccc2C=Cc2ccccc21,-2.07
14,Cc1cc(C)cc(N(CC(=O)NCc2ccc(F)cc2)C(=O)c2snc(C(N)=O)c2N)c1,9.77
15,Cn1c(=O)c2c(ncn2CC(=O)Nc2ccccc2Sc2ccccc2)n(C)c1=O,-8.95
16,Cc1cccc(OCC(=O)NCCNC(=O)c2cccnc2)c1,17.1
17,C/C(=N\NC(=O)c1nnn(-c2nonc2N)c1-c1ccccc1)c1ccco1,15
18,Cc1cccc(N2CCN(C(=O)CCCn3c(=O)[nH]c4ccsc4c3=O)CC2C)c1 (centres unmarked),-3.95
19,Cc1ccc(NC(=O)C2CCCN2C(=O)NC2CCCCC2)c(C)c1 (centres unmarked),11.7

row,SMILES,"hERG current change (%, negative = inhibition) at 10uM [%]"
1,Cc1ccccc1-n1nc(C)c2cc(C(=O)NCc3cccnc3)sc21,-31
2,Cc1ncc(CO)c2c1Oc1nc(-c3ccccc3F)nc(SCC(=O)N(C)c3ccccc3)c1C2,14.2
3,O=C(CN1C(=O)C2CCCCC2C1=O)Nc1cccc([N+](=O)[O-])c1 (centres unmarked),-13.3
4,N#Cc1cc(C(=O)c2ccccc2OCC(=O)Nc2ccccc2Cl)cn(C2CCCCC2)c1=O,-24.5
5,COc1ccc(/C=C/C(=O)OCC(=O)Nc2cccc(Oc3ccccc3)c2)c(OC)c1,7.56
6,CC(=O)c1ccc(NC(=O)CN2CCCC2)cc1,8.04
7,CCOC(=O)Cc1cnc(NC(=O)CSc2nc(C(C)C)cc(=O)[nH]2)s1,8.86
8,COc1cc(/C=C/C(=O)OCC(=O)NC(=O)NC2CCCCC2C)ccc1OC(F)F (centres unmarked),7.03
9,NS(=O)(=O)c1cccc(NC(=O)CC(NC(=O)c2ccccc2Cl)c2ccccc2)c1 (centres unmarked),6.92
10,O=C(CSc1n[nH]c(Cc2ccccc2)n1)Nc1ccccc1Br,-8.28
11,Cc1ccc(SCC(=O)N(Cc2nc(-c3ccccc3)no2)C(C)C)cc1,-0.577
12,CN(C)c1ccc(CN(C(=O)/C=C/c2ccco2)C2CCS(=O)(=O)C2)cc1 (centres unmarked),10.3
13,O=C(CN1CCc2ccccc2C1)c1cccs1.O=C(O)C(=O)O,1.44
14,CSc1ccccc1NC(=O)COC(=O)c1ccc(O)cc1,-12.8
15,CCn1ncc([N+](=O)[O-])c1C(=O)n1nc(C)cc1C,-0.972
16,O=C(C1CCCCN1S(=O)(=O)c1ccc(F)cc1)N1CCN(c2ccccc2F)CC1 (centres unmarked),-33.6
17,O=C(O)C1CC1C(=O)Nc1nc2c(Cl)cccc2s1 (centres unmarked),13.1
18,COc1cc(-c2nc3ccccn3c2/N=C/c2cccc(F)c2)ccc1O,4.38
19,CCc1nnc(NC(=O)c2cccc(S(=O)(=O)N3CCN(c4ccccc4)CC3)c2)s1,5.01

row,SMILES,"hERG current change (%, negative = inhibition) at 10uM [%]"
1,CCC(=O)N1CCc2cc(S(=O)(=O)NC(Cc3ccccc3)C(=O)NC3CCCCC3C)ccc21 (centres unmarked),-9.37
2,CC(NC(=O)COC(=O)CSc1ccc(F)cc1)c1ccc(F)cc1 (centres unmarked),10.5
3,Cc1ccc(NC(=O)CNC(=O)c2ccc3c(c2)OCO3)nc1,1.63
4,Cc1ccc2c(c1)CC1(CN2C)C(=O)NC(=O)N(c2ccccc2C)C1=O (centres unmarked),11.6
5,O=C(Cc1cccs1)N1CCC2(CC1)OCCO2,-3.26
6,Cc1cc(-c2n[nH]c(=S)n2/N=C/c2cccc(O)c2)n[nH]1,28.2
7,CCc1nnc(NC(=O)c2ccc(S(=O)(=O)N3CCc4ccccc4C3)cc2)s1,8.99
8,O=S(=O)(NCCc1ccncc1)c1ccccc1,4.04
9,CC1CCN(C(=O)C(=O)Nc2sc3c(c2C(N)=O)CC(C)(C)OC3)CC1,3.89
10,COc1ccc(C(=O)c2coc3c2C(=O)C(=O)c2ccccc2-3)cc1,6.77
11,CCC(=O)Nc1ccc(Br)c(Cl)c1,9.04
12,COc1ccccc1C(=O)NCCC(=O)NCC(c1ccc(F)cc1)N1CCOCC1 (centres unmarked),2.85
13,CCOC(=O)c1c(NC(=O)CN2C(=O)c3ccccc3C2=O)sc(Cc2ccc3c(c2)OCO3)c1C,9.12
14,CCOC(=O)N=Nc1c(O)n(Cc2ccccc2)c2ccccc12,-1.52
15,CCC(=O)Nc1ccc(CCC(=O)N2CCCC2)cc1,16.8
16,CC1(c2ccccc2)CC(C)(C)n2c(O)c(C3=NC(=S)NC3=O)c3cccc1c32 (centres unmarked),7.79
17,CC(C)C(=O)NNc1ccc(C(F)(F)F)cn1,29.4
18,CC(C)c1ccc(C2C3CSCC=C3C(C#N)=C(N)C2(C#N)C#N)cc1 (centres unmarked),2.89
